In PubChem BioAssay AID902 (National Center for Advancing Translational Sciences (NCATS), 2007):
Several values for one entry are separate records, joined by “and”; a condition that tells them apart may be missing. Identical values can stand only once. Out of some 130,000 compounds screened, about 1,900 (1.5%) were called active. This list was built around the results that the source calls inconclusive (neither active nor inactive); the mix of calls is not that of the screen. Calls follow the shape of the dose curve; as a rule, active = well fitted cell-killing curve with a large enough effect; inconclusive = small, poorly fitted or top-dose-only effect; inactive = no such curve, though single readings can be large or run the other way. Potencies beside an inconclusive call are fits to weak or partial responses and may not hold up. The source holds several records for some structures; these can differ, active in one and inactive in another.

Test: qHTS Screen for Compounds that Selectively Target Cancer Cells with p53 Mutations: Cytotoxicity of p53ts Cells at the Nonpermissive Temperature; also: nearly all actives have a fitted effect of over 55% in size
Settings: H1299-p53A138V viability at 39C, ATP luminescence, 24 h; activity change, negative = cell killing: at 46.1 µM (top of the series)
% is scaled to controls: 0 for no effect and ±100 for the full control effect; potency is read from the fitted curve at half-maximal effect; tags tell the direction and shape of the fitted curve.

| Compound | Potency | activity change, negative = cell killing |
| --- | --- | --- |
| Oc1ccc2c3c1O[C@H]1c4c(c5ccccc5n4Cc4ccccc4)C[C@]4(O)[C@H](C2)N(CC2CC2)CC[C@@]314 | active: 31.6 µM | – |
| CCCCCCn1c(N)c(C(=O)NCCN2CCOCC2)c2nc3ccccc3nc21 | inconclusive: 20 µM [cytotoxic, single point] | – |
| COc1cc([C@@H](O)CN)ccc1O | inactive | – |
| CCNC(C)(C)[C@@H](SS)c1ccc(Br)cc1 | – | inactive: 1.64% [at 9.22 µM] |
| O=C1CCCN1CC#CCN1CCCC1 | inactive | – |
| c1ccc2c(CN3CCN(C4CCCCC4)CC3)c[nH]c2c1 | inconclusive: 10 µM [cytotoxic, partial curve] | – |
| CC(C)(C)c1ccc(C(=O)Nc2ccc3nc(SCC(=O)N4CCCC4)sc3c2)cc1 | active: 3.16 µM | – |
| CC(C)(Cc1c[nH]c2ccc(Cl)cc12)NCCOc1ccccc1OCC1CC1 | active: 25.1 µM | – |
| CCCCN1C2CCC1CC(OC(c1ccc(F)cc1)c1ccc(F)cc1)C2 (configuration not stated) | active: 12.6 µM | – |
| COc1cc([C@H]2c3cc4c(cc3[C@@H](O)[C@@H]3COC(=O)[C@H]23)OCO4)cc(OC)c1OC | inconclusive: 0.0158 µM [cytotoxic, full curve, poor fit] | – |
| c1ccc2c(c1)[I+]c1ccccc1-2 | inconclusive: 12.6 µM [cytotoxic, partial curve] | – |
| COc1ccc2c(c[n+](C)c3c4cc5c(cc4ccc23)OCO5)c1OC | active: 12.6 µM | – |
| CC(C)CCCC1(C)C=Cc2c(O)c3c(c(CCC(C)C)c2O1)OC12C(CC4CC1C(C)(C)OC2(CCC(C)C(=O)O)C4O)C3=O (configuration not stated) | inconclusive: 25.1 µM [cytotoxic, single point] | – |
| O=C(c1cc2ccccn2n1)N1CCC2(CC1)OCCO2 | inactive | – |
| CC(=O)O[C@H]1CC[C@H]2[C@@H]3CCC4=C[C@@H](C5SCCS5)[C@H](OC(C)=O)C[C@]4(C)[C@H]3CC[C@@]12C | – | inactive: -1.06% [at 9.22 µM] |
| CCOC(=O)c1ccc(N2C(=O)c3n[nH]c(-c4cccs4)c3C2c2ccc(Cl)cc2Cl)cc1 (configuration not stated) | inconclusive: 31.6 µM [cytotoxic, single point] | – |
| COc1ccc2c(c1)c(=O)c(C(=O)c1ccc(Cl)cc1)cn2CC(=O)Nc1ccc2c(c1)OCCO2 | inconclusive: 15.8 µM [cytotoxic, single point] | – |
| Cc1ccc(OP(=O)(Oc2ccc(C)cc2)N2C=Cc3ccccc3[C@H]2C#N)cc1 | – | inactive: -3.6% [at 9.22 µM] |
| Cc1ccc(C(=O)Nc2ccccc2)cc1S(=O)(=O)N1CCCC1 | inconclusive: 20 µM [cytotoxic, partial curve] | – |
| Cc1c([C@@H](C)[C@H]2NC[C@H](C)C[C@@H]2O)ccc2c1C[C@@H]1[C@H]2CC=C2C[C@@H](O)CC[C@@]21C | – | inactive: 11.2% [at 9.22 µM] |
| CN1CCN(C(=O)COc2ccc(-c3nc4ccccc4s3)cc2)CC1 | active: 0.794 µM | – |
| COc1ccc(CNC(=O)Cn2c(SCC(=O)Nc3ccc(C)c(C)c3)nc3ccccc32)cc1 | inconclusive: 31.6 µM [cytotoxic, single point] | – |
| O=C(CN1CCCCC1)c1cccc(Br)c1 | inactive | – |

| Compound | Potency | activity change, negative = cell killing |
| --- | --- | --- |
| c1ccc(CN2CCC3(CCc4ccccc43)CC2)cc1 | inconclusive: 15.8 µM [cytotoxic, partial curve] | – |
| Cc1ccc(C(=O)Nc2c(C(=O)Nc3ccc(C)c(C)c3)sc3nc(C)cc(C)c23)cc1 | active: 6.31 µM | – |
| COc1cccc(-c2cc(C(=O)Nc3cnn(Cc4ccc(Cl)cc4Cl)c3)no2)c1 | active: 10 µM | – |
| OCCN1CCN(CCCN2c3ccccc3Sc3ccc(C(F)(F)F)cc32)CC1 | active: 12.6 µM | – |
| O=C(CN1CCN(c2ncccn2)CC1)N1CCN(C(c2ccccc2)c2ccccc2)CC1 | inconclusive: 31.6 µM [cytotoxic, single point] | – |
| O=C(Nc1ccc2c(c1)OCCO2)c1cccn(Cc2ccccc2)c1=O | inconclusive: 31.6 µM [cytotoxic, partial curve] | – |
| NC(C(=O)O)[C@@H]1CC(Cl)=NO1 (some centres not stated) | inconclusive: 12.6 µM [cytotoxic, single point] | – |
| NCCc1c[nH]c2ccccc12 | inactive | – |
| CCCCC/C=C\C/C=C\C/C=C\C/C=C\CCCC(=O)Nc1ccc(O)cc1 | inconclusive: 31.6 µM [cytotoxic, single point] | – |
| Nc1c(C(=O)Nc2ccc(F)c(Cl)c2)sc2nc3c(cc12)N1CCC3CC1 | inconclusive: 25.1 µM [cytotoxic, single point] | – |
| COc1ccc(Nc2nc(N)nc(CSc3nc4ccccc4s3)n2)cc1 | inconclusive: 20 µM [cytotoxic, single point] | – |
| CC(=O)c1c(C)nc2ccccc2c1N | active: 10 µM | – |
| Cc1ccccc1-c1nc(CS(=O)CC(=O)N2CCN(c3cc(Cl)ccc3C)CC2)c(C)o1 (configuration not stated) | inconclusive: 15.8 µM [cytotoxic, single point] | – |
| C/C=C1\C[N@@+]2(C)CC[C@@]34C(=C(C=O)[C@H]1C[C@H]32)Nc1ccccc14 | inactive | – |
| CCc1ccccc1NC(=O)c1sc2nc3c(cc2c1N)CN(Cc1ccccc1)CC3 | inconclusive: 12.6 µM [cytotoxic, single point] | – |
| CC(=O)OC1CCC23C(=O)OC45CCC(C6=CC(=O)OC6)C4(C)CCC2C5CCC3(O)C1 (configuration not stated) | inconclusive: 0.501 µM [cytotoxic, full curve] | – |
| COc1cc2[nH]c(=O)n(CCCCCC(=O)N3CCN(c4cccc(C(F)(F)F)c4)CC3)c(=O)c2cc1OC | active: 12.6 µM | – |
| Cc1c2ccncc2c(C)c2c1[nH]c1ccccc12 | active: 10 µM and active: 12.6 µM | – |
| CC(=O)Oc1c2c(c(CC=C(C)C)c3c1C(=O)C1=CC4CC5C(C)(C)OC(C/C=C(\C)C(=O)O)(C4=O)[C@]15O3)OC(C)(CCC=C(C)C)C=C2 (some centres not stated) | active: 3.98 µM | – |
| Nc1ncnc2c1ncn2[C@@H]1O[C@@H](COP(=O)(O)CP(=O)(O)OP(=O)(O)O)[C@H](O)[C@@H]1O | inactive | – |
| CC(=O)Oc1ccccc1C(=O)Nc1ncc([N+](=O)[O-])s1 | inconclusive: 10 µM [cytotoxic, partial curve] | – |
| Cc1nc2c(=O)n(C)c(=O)nc-2n(C)n1 | active: 2 µM | – |
| CCCN1CCc2cc(O)cc3c2[C@H]1Cc1ccc(O)c(O)c1-3 | inconclusive: 25.1 µM [cytotoxic, single point] | – |

| Compound | Potency | activity change, negative = cell killing |
| --- | --- | --- |
| CN1C(=O)c2ccccc2Sc2ccc(NC(=O)c3ccc(C(F)(F)F)cc3)cc21 | inconclusive: 15.8 µM [cytotoxic, single point] | – |
| CC(C)=CCCC1(C)C=Cc2c(O)c3c(c(CC=C(C)C)c2O1)OC12C(=CC4CC1C(C)(C)OC2(C/C=C(/C)C(=O)O)C4O)C3=O (configuration not stated) | active: 5.01 µM | – |
| CCOc1ccc(C(=O)Nc2cccc(C(=O)OCc3cc(=O)n4nc(C5CC5)sc4n3)c2)cc1 | inconclusive: 0.794 µM [cytotoxic, full curve, poor fit] | – |
| CCCCC1C(=O)NC(=S)NC1=O | inactive | – |
| Cc1c(CCC(=O)N2CCCCC2)c(=O)oc2cc3occ(C(C)(C)C)c3cc12 | inconclusive: 12.6 µM [cytotoxic, partial curve] | – |
| COc1cc(OC)c(/C=C2/C(=O)Nc3ccccc32)c(OC)c1 | inconclusive: 3.98 µM [cytotoxic, partial curve] | – |
| CC(C)C(=O)N1CCC(CN=Cc2c(O)n(C3CCCCC3)c(=O)n(C3CCCCC3)c2=O)CC1 | inconclusive: 20 µM [cytotoxic, single point] | – |
| COc1cc(CNC(=O)CCCC/C=C\C(C)C)ccc1O | inconclusive: 31.6 µM [cytotoxic, single point] | – |
| O=C(Nc1cc(Cl)ccc1Cl)c1cc(S(=O)(=O)N2CCc3ccccc3C2)ccc1F | inconclusive: 20 µM [cytotoxic, partial curve, poor fit] | – |
| CCc1ccccc1Nc1nn2c(=O)c3ccc(C(=O)Nc4cc(C)cc(C)c4)cc3nc2s1 | active: 3.98 µM | – |
| O=c1c2ccccc2nc(/C=C/c2cccc3ccccc23)n1-c1ccc(Cl)cc1 | – | inconclusive: -36.4% [cytotoxic] |
| COc1c(C)cc(Br)cc1C(=O)Nc1ccc(-c2nc3ncccc3o2)cc1 | active: 6.31 µM | – |
| COc1ccc(CNC(=O)/C=C\c2ccc3[nH]cc(CCN(C)C)c3c2)cc1 | inconclusive: 3.16 µM [cytotoxic, partial curve] | – |
| NC(=NCCc1ccc(I)cc1)SCCCc1cnc[nH]1 | inconclusive: 12.6 µM [cytotoxic, partial curve] | – |
| CC(C)c1cc2c(c(O)c1O)[C@]1(C(=O)O)CCCC(C)(C)C1CC2 (some centres not stated) | inconclusive: 31.6 µM [cytotoxic, single point] | – |
| Cc1ccc(NC(=O)Nc2ccc3nc(N4CCN(C)CC4)cc(C)c3c2)cc1F | inconclusive: 20 µM [cytotoxic, single point] | – |
| CC(C)(C)c1ccc(S(=O)(=O)Nc2ccc(O)c(Sc3nc4ccccc4s3)c2)cc1 | inconclusive: 20 µM [cytotoxic, single point] | – |
| Cc1ccc(CNC(=O)C(=O)NCC(c2cccnc2)N2CCN(c3ccc(F)cc3)CC2)cc1 (configuration not stated) | inactive | – |
| CN(C)CCCNc1c2c(nc3ccc(Cl)cc13)CCCC2 | – | inactive: -4.84% [at 9.22 µM] |
| O=C(Oc1ccc(S(=O)(=O)F)cc1F)c1ccccc1Cl | – | inactive: 7.3% [at 9.22 µM] |
| COCCCNC(=O)c1c(NC(=O)c2ccco2)n(Cc2ccccc2)c2nc3ccccc3nc12 | inconclusive: 20 µM [cytotoxic, single point] | – |
